Drawing on the RNAGym collection of RNA variant scans (doi:10.1093/nar/gkz1192), this text covers self-cleavage for 167 variants.

The source gives no read counts; variants with many changes may rest on few reads.

B1: CPEB3 Ribozyme (parent)
chain: UAACAGGGGGCCACAGCAGAAGCGUUCACGUCGCAGCCCCUGUCAGAUUCUGGUGAAUCUGCGAAUUCUGCUGUAUAUCUC

This data set covers variants of B1. Put plainly: self-cleavage, relative activity (ratio to wild type); higher = more cleavage; in vitro, sequencing. Put shortly: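 For each CPEB3 ribozyme variant, relative activity is its cleaved/total read fraction divided by the unmutated ribozyme's. Barcoded error-prone PCR libraries were transcribed by T7 RNA polymerase (5 hours, 37°C) and held in DNase I for 15 min before an EDTA stop, with cleavage occurring throughout. Template-switching reverse transcription and Illumina sequencing were used to read the RNAs. A 5-read minimum applied, and results are the mean of three batches.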
Take G6U A15U U54A: the self-cleavage turned out to be 0.42.
In the case of G6U A15U A21G A35G C40U U49C A65C, the self-cleavage turned out to be 0.06.
On to G6U U51C A65C U72C A77C, for which the self-cleavage amounted to 0.13.
For G6U C40U U66C U74C, the self-cleavage is 0.35.
The figure for G7C A13G U43C is 0.42; for G7A A13U A15G U25C A57G U78C it is 0.18; for G6C G22A G52A A64U it is 0.17.
The same measure for G7A A20U G70C: 0.06; for G6U U26C U78C: 0.1.
The figure for G7A U41C U48C G52A U58C is 0.07; for G7A A21G A28G it is 0.11.
On to G6U A15G C39U U69C, for which the self-cleavage stood at 0.1.
As to G7A U54C G55A U69A U74C, the self-cleavage was 0.03.
The figure for G7A A18U G24U A45G A56G A65G is 0.04; for G7A U26C A35U A56G U72A it is 0.04.
Turning to G6U A45U U66C C79A, the self-cleavage is 0.26.
As for G6U A21U U60C, the self-cleavage was 0.07.
In the case of G6U C14A A18G U41A A45G U51C, the self-cleavage amounted to 0.05.
Turning to G6U A21U A35U, the self-cleavage amounted to 0.33.
In the case of G7A U72A A77G U78C, the self-cleavage stood at 0.28.
For the variant G6U U31C G63U, the self-cleavage came out at 0.29.
For G7A A13G U48C, the self-cleavage is 0.24.
Consider G6U A45G U72C, for which the self-cleavage came out at 0.1.
The figure for G7A G22U G53A U76A is 0.05; for G6U U25C A77G U80C it is 0.06; for G7A U51C A64G it is 0.06.
The same measure for G7A U25C A45U: 0.05.
The figure for G6C U72G G73C U80C is 0.25; for G6C U31C C32A A35G it is 0.31; for G7A U43A U74A U80C C81U it is 0.44.
For G7A A28G U80C, the self-cleavage was 0.4.
As to G7A U26C U41A A64G, the self-cleavage stood at 0.17.
The same measure for G6U U31C U54C U69G: 0.17; for G6C A13G C32A U67C: 0.24.
The figure for G7C A13G A20U U60A is 0.08; for G7A G10A U69C U78C it is 0.06.
With G7C A28G C34U C39A U69C, the self-cleavage amounted to 0.11.
The same measure for G7A A15U U72C U80A: 0.06; for G7A U26C G30C U48C: 0.08; for G6U G9C U58C U78A: 0.07.
The figure for G7A A13U A57G U80A is 0.06; for G6U A15G U31C A65G U69G U78C it is 0.06; for G7A U41A U51A it is 0.25.
Consider G7A A28G U41A U54C U72A, for which the self-cleavage came out at 0.06.
On to G7A U41A G55U A57G, for which the self-cleavage was 0.16.
The same measure for G6U U25C U67A: 0.09.
The same measure for G7A A18G U80A: 0.4; for G7A C32U C38G A45U U49C U51A A57G: 0.03.
As to G6U G33C A64G A65G, the self-cleavage turned out to be 0.11.
The figure for G6U C34U G52C U66A U72G is 0.05; for G6U A28G U41C G46A U58C A64G it is 0.07; for G6C G30A A45U G73U it is 0.31.
The figure for G6U U31A U48A is 0.04.
The same measure for G7A A18G A65G A77G: 0.09; for G7A U49A A77G: 0.08.
As for G6U A35G U60G A77G, the self-cleavage amounted to 0.11.
The figure for G6U A13G U80C is 0.47.
The figure for G7A U31C U43G A56G A75G is 0.06; for G7A U26A A28U U43A A45G it is 0.08.
On to G7A A45G A47U U60C, for which the self-cleavage was 0.06.
The same measure for G6U A65G U69A: 0.39; for G7A U26C C38A G46A: 0.23; for G7C A20G U74A A77U: 0.46.
As for G6C U66C U69C U72C, the self-cleavage was found to be 0.06.
As to G7A A20G U76A A77G, the self-cleavage was 0.11.
As for G7A G10A G22A U72C U76G, the self-cleavage stood at 0.15.
Regarding G7A C23A A45U U72C, the self-cleavage worked out at 0.05.
The same measure for G6U C12A A13G A15G C32A U80G: 0.05.
G7A U60C A64U: the self-cleavage is 0.14.
Regarding G7A A28U U41G A64U, the self-cleavage amounted to 0.06.
The same measure for G7A U43C A57G: 0.44; for G7A A57G U74C: 0.37; for G7A U25C U41A U66C U67A: 0.07.
The figure for G7A U26G A28G U48C U60A is 0.05; for G7A G33A C44U U74C U80A it is 0.22; for G7C A13G G61U U69A U74C it is 0.12.
The figure for G7A A15C A21G U43C U49C U80C is 0.21; for G6U C17U A20G U25C A47G U74C it is 0.04; for G6U G19A A21G A28U U41A G55U A75G it is 0.03.
Regarding G6A U69A U78C, the self-cleavage is 0.14.
Take G6U A13G A35G: the self-cleavage was found to be 0.37.
The figure for G7A A15U A35G C40G U60C C62U is 0.05; for G7C A13G A18U U43C it is 0.22.
The figure for G6U A15G U41C U69A U80C is 0.14.
Turning to G7A A15G U67C U74C, the self-cleavage was determined as 0.19.
The same measure for G7A A35G A65U U66A: 0.23; for G7A G30A A77U U80C: 0.05.
The same measure for G6C U43C A56G A64G U69A: 0.31; for G6A U54C U74G A75U: 0.5.
In the case of G6U A20U U67C, the self-cleavage stood at 0.12.
G6U A20G U51C: the self-cleavage came out at 0.1.
On to G7A A28U U54A U72C, for which the self-cleavage came to 0.18.
The same measure for G7C A15G U31C G33U A57G: 0.27; for G6C G24A U49C U67C: 0.06; for G7A G10C U26A U54C A56G G63A: 0.05.
The figure for G7A A20G U25A U26C U67C is 0.05; for G7A A45G A56G it is 0.21; for G7A A21G A35G U41C C50A it is 0.07.
The same measure for G7A A28G A45G A47G: 0.12.
As to G7A A47G C59A U74A, the self-cleavage worked out at 0.05.
The figure for G7A A18C A47U U49C U60C is 0.05; for G7A A35U A57G G70U it is 0.06; for G6U G16U C29U G33A C50U U66A it is 0.04.
Consider G7A U54C U60C A64G, for which the self-cleavage is 0.06.
Take G6U G33U U41C U66A U67A: the self-cleavage stood at 0.07.
Take G6U A35U A47G: the self-cleavage amounted to 0.1.
G6C A21U U26C C32U U41C U72C: the self-cleavage turned out to be 0.04.
Turning to G7A A21C U26C U66C, the self-cleavage is 0.11.
Consider G6U U31A U43A U60C, for which the self-cleavage is 0.15.
On to G6U U48C A56G U58C, for which the self-cleavage was 0.21.
For the variant G6A U67A A75U, the self-cleavage was 0.18.
For the variant G7A A15U A18G C40U U51C A57G U60C, the self-cleavage was determined as 0.03.
G6U U49C U78C: the self-cleavage was found to be 0.29.
As for G7A A13G A35G G42A U54C, the self-cleavage was determined as 0.08.
The figure for G7A U49A U60C U67A U69C is 0.06; for G7A A35U A57G it is 0.21.
The same measure for G7A U48C U49A U54C A64U U69C: 0.04; for G7A U58C A64G U80G: 0.06.
For G7A U43C A64U, the self-cleavage stood at 0.14.
The same measure for G7A A13C U31C A47U A57G U69C U80C: 0.05; for G6U U25C U43C U58A U67A: 0.24; for G6U G46A A56G: 0.07.
With G7A C12A A20G A28U A35G U80A, the self-cleavage was 0.04.
The same measure for G7A A20U A65G U69C: 0.23; for G7A A13U U25C C29U U41C U58A: 0.06.
For G7A C59U A64C U76A, the self-cleavage was 0.04.
Consider G7A U60A A64G U67C, for which the self-cleavage turned out to be 0.07.
The same measure for G7A A35U U41A A56G: 0.06; for G6C A13G U25A U41C U66C: 0.27.
Regarding G6U A47G U49C A56U A57G, the self-cleavage is 0.05.
For the variant G7A A13G U26A U31A U48C U66C, the self-cleavage came to 0.04.
The figure for G6U A28U A35G U43C is 0.13.
The same measure for G7A U26A U31A A47G A56G A64G: 0.04.
As to G7A A15U A28U U51A A65U, the self-cleavage turned out to be 0.29.
For the variant G6U C68A U72C, the self-cleavage was 0.21.
With G6U A35G U72C, the self-cleavage worked out at 0.39.
As for G7A A13U U49C U66C U76C, the self-cleavage worked out at 0.14.
The same measure for G6C U25C C32U U54C: 0.23; for G7A U25C G33A C40U U41C U67C: 0.06; for G6U C12G U41G G52A U76A: 0.09.
The same measure for G7A C11G U26C A28G G33A A35U C38U: 0.03; for G7A A13U A57G: 0.18.
For G7A C23A U26G U48A U51A U67A G70A, the self-cleavage was 0.13.
For G7A A18G U41A U54C U66C, the self-cleavage stood at 0.04.
Consider G6U C50U A64U, for which the self-cleavage stood at 0.38.
For G7C A13G U43C A56G, the self-cleavage was determined as 0.05.
The figure for G7A A20G C32G U43C A57G G61A C71U is 0.03; for G7A A13U A28G C32U U78C U80C it is 0.06.
As to G6C G9U A18G C40U U49G U66C U78A, the self-cleavage came to 0.04.
For the variant G7A U51A G73A, the self-cleavage is 0.09.
The same measure for G7A A21G A47G U74G: 0.04.
The same measure for G6U G9A A13G U48A U67C: 0.08; for G7A U31C U49C U54A U72C: 0.04.
The same measure for G7C A15U U60G: 0.12; for G7A C37A U67C: 0.13; for G7A A13G A47C: 0.05.
On to G7A G9U U54A, for which the self-cleavage came to 0.43.
G7A A57G U66C: the self-cleavage amounted to 0.41.
The same measure for G6U A13G U51C U72A: 0.14; for G7A A28G U31A U41A A57G A64G: 0.05.
Turning to G6U C11G U26A, the self-cleavage was 0.96.
Regarding G7C A15G G24U U25C U26C A47C A65G, the self-cleavage was found to be 0.04.
The same measure for G7A G10A A20U G33C: 0.12.
Regarding G7A C11G U25A U31A, the self-cleavage was found to be 0.05.
The figure for G6U G9C A64G U66C is 0.06; for G7A A20G U31C A35G A56G U72C it is 0.15.
In the case of G7A U25A C32A A45U A56C, the self-cleavage was determined as 0.12.
